About 220 (0.56%) of roughly 39,000 compounds showed activity. This is one part of the list.
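Further: static incubation at 37 °C against the wild-type strain, values averaged over two biological replicates.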

The experiment has as its system Escherichia coli K-12 BW25113. Put plainly: relative growth (OD600 normalised to plate interquartile mean) (fraction); higher = less growth inhibition, active = 0.2 or less. The conditions noted are these: 50 µM; LB; incubation time: overnight (16-24 h).
With `C[C@@H]1CN([C@H](C)CO)C(=O)c2cc(C#CC3(O)CCCC3)cnc2O[C@H]1CN(C)C(=O)C1CCOCC1`, the relative growth was inactive: 0.984.

For the compound `COCC#Cc1ccc2c(c1)O[C@H](CN(C)S(C)(=O)=O)[C@H](C)CN([C@H](C)CO)S2(=O)=O`, the relative growth was inactive: 1.04.

Turning to `C[C@@H]1CCCCO[C@@H](CN(C)Cc2ccccc2)[C@H](C)CN([C@@H](C)CO)C(=O)c2cc(NC(=O)Nc3ccc4c(c3)OCO4)ccc2O1`, the relative growth was inactive: 1.01.

On to `O=C(C[C@@H]1CC[C@@H]2[C@H](COC[C@H](O)CN2S(=O)(=O)c2ccccc2F)O1)NCc1ccccc1Cl`, for which the relative growth was inactive: 0.912.

With `CC(C)CC#Cc1cnc2c(c1)C(=O)N([C@H](C)CO)C[C@H](C)[C@H](CN(C)S(=O)(=O)c1ccccc1)O2`, the relative growth is inactive: 1.02.

Take `COc1ccc(NC(=O)N(C)C[C@H]2Oc3ccc(NS(C)(=O)=O)cc3CC(=O)N([C@@H](C)CO)C[C@@H]2C)cc1`: the relative growth is inactive: 1.02.

Consider `Cl.Nc1ccn(C2OC(CO)C(O)C2(F)F)c(=O)n1` (stereo not drawn), for which the relative growth is inactive: 1.09.

Consider `C[C@@H]1CN([C@@H](C)CO)C(=O)c2cc(NS(=O)(=O)c3cccs3)ccc2O[C@@H]1CN(C)Cc1ccc(Oc2ccccc2)cc1`, for which the relative growth is inactive: 0.981.

Regarding `C[C@@H]1CN([C@H](C)CO)C(=O)c2cc(NC(=O)Cc3ccccc3)ccc2O[C@H]1CN(C)S(=O)(=O)c1ccccc1`, the relative growth was inactive: 0.978.

For `Cc1ccc(S(=O)(=O)N(C)C[C@@H]2OCCCC[C@H](C)Oc3ccc(NC(=O)Nc4ccc5c(c4)OCO5)cc3C(=O)N([C@H](C)CO)C[C@H]2C)cc1`, the relative growth is inactive: 1.02.

Consider `C[C@@H]1CCCCO[C@H](CN(C)C(=O)Nc2cccc3ccccc23)[C@H](C)CN([C@@H](C)CO)C(=O)c2cc(NC(=O)Nc3ccc(C(F)(F)F)cc3)ccc2O1`, for which the relative growth is inactive: 0.868.

In the case of `C[C@@H]1CN([C@H](C)CO)C(=O)c2cc(NC(=O)C3CCCCC3)ccc2O[C@@H](C)CCCCO[C@H]1CN(C)C(=O)Cc1ccccc1`, the relative growth was inactive: 1.01.

As to `CSCC[C@H](NC(=O)[C@H](Cc1c[nH]c2ccccc12)NC(=O)CNC(=O)[C@@H](NC(=O)[C@H](Cc1ccc(OS(=O)(=O)O)cc1)NC(=O)[C@H](CC(=O)O)NC(=O)[C@H](CCC(N)=O)NC(=O)[C@@H]1CCC(=O)N1)[C@@H](C)O)C(=O)N[C@@H](CC(=O)O)C(=O)N[C@@H](Cc1ccccc1)C(N)=O`, the relative growth is inactive: 1.01.

Regarding `C[C@@H]1CN([C@@H](C)CO)C(=O)c2cc(NS(=O)(=O)c3cccs3)ccc2O[C@@H](C)CCCCO[C@@H]1CN(C)C(=O)Nc1ccc2c(c1)OCO2`, the relative growth was inactive: 1.04.

As for `C[C@H](CO)N1C[C@H](C)[C@H](CN(C)C(=O)Nc2cccc3ccccc23)Oc2ncc(-c3ccc(F)cc3)cc2C1=O`, the relative growth was inactive: 1.02.

With `C[C@H]1CN([C@@H](C)CO)S(=O)(=O)c2ccc(C#CC(C)(C)O)cc2O[C@@H]1CN(C)Cc1ccccc1`, the relative growth was inactive: 1.01.

Regarding `O=C(C[C@@H]1CC[C@H]2[C@@H](COC[C@@H](O)CN2S(=O)(=O)c2ccc(F)cc2)O1)N1CCc2ccccc2C1`, the relative growth is inactive: 1.02.

Turning to `COC(=O)CCn1ccc(=O)[nH]c1=O`, the relative growth was inactive: 0.995.

Take `C[C@@H]1CCCCO[C@@H](CN(C)Cc2ccc3c(c2)OCO3)[C@H](C)CN([C@@H](C)CO)C(=O)c2cc(NC(=O)Cc3ccccc3)ccc2O1`: the relative growth is inactive: 1.01.

Turning to `c1ccc2[nH]c(-c3cscn3)nc2c1`, the relative growth is inactive: 1.

Turning to `CN(C)c1nc(Oc2ccc(=O)n(C)n2)nc(N(C)C)n1`, the relative growth was inactive: 1.02.

Take `C[C@H]1CN([C@@H](C)CO)C(=O)c2cccc(NC(=O)C3CC3)c2O[C@@H]1CN(C)S(=O)(=O)c1ccccc1`: the relative growth was inactive: 0.999.

Regarding `Cc1noc(C)c1NC(=O)Nc1ccc2c(c1)C(=O)N([C@@H](C)CO)C[C@@H](C)[C@H](CN(C)Cc1ccc3c(c1)OCO3)OCCCC[C@@H](C)O2`, the relative growth was inactive: 0.989.

Turning to `O=C(C[C@@H]1CC[C@@H]2[C@H](COC[C@H](O)CN2S(=O)(=O)c2ccc(F)cc2)O1)N[C@H]1CCN(Cc2ccccc2)C1`, the relative growth was inactive: 0.992.

Consider `C[C@H]1CN([C@@H](C)CO)C(=O)c2cccc(NC(=O)Nc3cccc4ccccc34)c2O[C@@H]1CN(C)C(=O)Nc1ccccc1`, for which the relative growth was inactive: 1.01.

`C[C@@H]1CN([C@H](C)CO)C(=O)Cc2cc(NS(C)(=O)=O)ccc2O[C@H]1CN(C)S(C)(=O)=O`: the relative growth was inactive: 0.964.

For the compound `Cc1cc(C(=O)Nc2cccc3c2O[C@@H](CN(C)S(=O)(=O)c2cccs2)[C@H](C)CN([C@H](C)CO)C3=O)n(C)n1`, the relative growth was inactive: 1.02.

Turning to `C[C@H]1CN([C@@H](C)CO)C(=O)c2cc(NC(=O)Cn3cnnn3)ccc2O[C@H]1CN(C)S(=O)(=O)c1cn(C)cn1`, the relative growth is inactive: 1.

As to `C[C@@H]1CN([C@@H](C)CO)C(=O)c2cccc(NC(=O)Nc3ccc(C(F)(F)F)cc3)c2O[C@H]1CN(C)C(=O)Nc1ccc(C(F)(F)F)cc1`, the relative growth is inactive: 0.951.

For the compound `C[C@@H](O)[C@@H](O)[C@@H](O)C/C=N/NC(=O)CCCCCCC(=O)NO`, the relative growth is inactive: 0.976.

As for `O=C(C=Cc1ccc(O)c(O)c1)C=C(O)C=Cc1ccc(O)c(O)c1`, the relative growth is inactive: 0.984.

`Cc1ccc(/C=N/c2ccccc2Sc2c(C)n[nH]c2C)cc1`: the relative growth was inactive: 0.987.

On to `CNC[C@@H]1Oc2ccc(NC(=O)Cn3cnnn3)cc2CC(=O)N([C@@H](C)CO)C[C@@H]1C`, for which the relative growth is inactive: 1.02.

`C[C@H]1CN([C@@H](C)CO)C(=O)Cc2cc(N(C)C)ccc2O[C@H]1CN(C)S(=O)(=O)c1ccc(Cl)cc1`: the relative growth was inactive: 0.999.

Turning to `C[C@@H]1CCCCO[C@@H](CN(C)C(=O)NC2CCCCC2)[C@@H](C)CN([C@H](C)CO)C(=O)c2cc(NC(=O)c3ccncc3)ccc2O1`, the relative growth was inactive: 1.

For `COc1cccc(-c2cn(CC[C@@H]3CC[C@H](NS(=O)(=O)c4ccccc4Cl)[C@H](CO)O3)nn2)c1`, the relative growth was inactive: 1.01.

For the compound `Cc1ccc(S(=O)(=O)Nc2cccc3c2O[C@H](CN(C)Cc2ccc(Cl)c(Cl)c2)[C@@H](C)CN([C@@H](C)CO)C3=O)cc1`, the relative growth is inactive: 1.03.

Consider `COc1ccc(S(=O)(=O)N2C[C@H](O)COC[C@H]3O[C@H](CC(=O)NCCCN(C)C)CC[C@@H]32)cc1`, for which the relative growth was inactive: 0.966.

As to `C[C@@H]1CCCCO[C@H](CN(C)C(=O)Nc2cccc3ccccc23)[C@H](C)CN([C@@H](C)CO)C(=O)c2cc(NC(=O)c3ccncc3)ccc2O1`, the relative growth was inactive: 0.969.

For the compound `O=C(C[C@@H]1CC[C@H]2[C@@H](COC[C@@H](O)CN2S(=O)(=O)c2ccc(Cl)cc2)O1)N1CCc2ccccc2C1`, the relative growth was inactive: 0.995.

As to `CC(=O)n1cc([C@H]2C=C(C(=O)N3CCCCCCC3)O[C@@H](OCc3ccc(COC(=O)NCCCCCC(=O)NO)cc3)C2)c2ccccc21`, the relative growth is inactive: 0.933.

For the compound `C[C@H](CO)N1C[C@H](C)[C@@H](CN(C)Cc2cncnc2)Oc2cc(-c3ccccc3F)ccc2S1(=O)=O`, the relative growth is inactive: 0.994.

`C[C@@H]1CN([C@@H](C)CO)C(=O)c2cccc(NC(=O)c3ccncc3)c2O[C@@H]1CN(C)S(=O)(=O)c1cccs1`: the relative growth was inactive: 1.01.

In the case of `C[C@H](CO)N1C[C@H](C)[C@@H](CN(C)Cc2ccc(-c3ccccc3)cc2)Oc2ccc(NC(=O)C3CC3)cc2C1=O`, the relative growth was inactive: 1.02.

As for `C[C@H]1CN([C@@H](C)CO)C(=O)c2cccc(NC(=O)C3CCCCC3)c2O[C@@H]1CN(C)Cc1ccc(-c2ccccc2)cc1`, the relative growth is inactive: 0.983.

Turning to `CCCN(C)C[C@H]1Oc2cc(C#Cc3ccccc3OC)ccc2S(=O)(=O)N([C@@H](C)CO)C[C@H]1C`, the relative growth was inactive: 1.01.

For `COc1ccc(S(=O)(=O)N2C[C@H](O)COC[C@@H]3O[C@H](CC(=O)N[C@H]4CCN(Cc5ccccc5)C4)CC[C@H]32)cc1`, the relative growth is inactive: 1.03.

For `C[C@@H]1CN([C@H](C)CO)C(=O)Cc2cc(NC(=O)Nc3ccc(F)cc3)ccc2O[C@@H]1CN(C)S(=O)(=O)c1cn(C)cn1`, the relative growth is inactive: 1.02.

Turning to `COc1ccc2c3c(n(c2c1)C)[C@H](CO)N(C[C@]13CN(C1)S(=O)(=O)c1cn(cn1)C)C(=O)Nc1ccc(cc1)F`, the relative growth is inactive: 1.02.

Consider `C[C@@H]1CCCCO[C@@H](CN(C)C(=O)CCC(F)(F)F)[C@@H](C)CN([C@@H](C)CO)C(=O)c2cc(NC(=O)CCC(F)(F)F)ccc2O1`, for which the relative growth was inactive: 0.984.

For the compound `C[C@H]1CCCCO[C@@H](CN(C)Cc2ccccc2)[C@@H](C)CN([C@@H](C)CO)C(=O)c2cc(NC(=O)c3ccccc3)ccc2O1`, the relative growth is inactive: 0.996.

For `CC(C)NC(=O)N(C)C[C@H]1Oc2ccc(NC(=O)C3CCCCC3)cc2C(=O)N([C@@H](C)CO)C[C@@H]1C`, the relative growth was inactive: 1.01.

`C[C@H](CO)N1C[C@H](C)[C@H](CN(C)S(=O)(=O)c2ccc(Cl)cc2)Oc2ccc(NS(=O)(=O)c3cn(C)cn3)cc2C1=O`: the relative growth was inactive: 1.01.

`COc1ccccc1-c1cnc2c(c1)C(=O)N([C@H](C)CO)C[C@H](C)[C@@H](CN(C)C(=O)c1cccnc1)O2`: the relative growth is inactive: 0.987.

Consider `COc1ccc(S(=O)(=O)N(C)C[C@@H]2OCCCC[C@H](C)Oc3ccc(NC(=O)C4CCCCC4)cc3C(=O)N([C@@H](C)CO)C[C@@H]2C)cc1`, for which the relative growth was inactive: 1.02.

Regarding `c1ccc(-c2ccc([C@H](c3ccccc3)n3ccnc3)cc2)cc1`, the relative growth was inactive: 0.983.

As for `C[C@@H]1CCCCO[C@H](CN(C)Cc2ccc(Cl)c(Cl)c2)[C@@H](C)CN([C@@H](C)CO)C(=O)c2cc(NS(=O)(=O)c3ccccc3)ccc2O1`, the relative growth was inactive: 0.981.

With `O=C(C[C@@H]1C[C@H]2c3cc(NC(=O)NC4CCCC4)ccc3O[C@H]2[C@H](CO)O1)NCc1ccc(-c2ccccc2)cc1`, the relative growth was inactive: 0.963.

Values taken from the supplement of paper PMC9446081.
